Test results published in PubChem BioAssay AID686979 (National Center for Advancing Translational Sciences (NCATS), 2013).
Screen size: about 420,000 compounds; about 50,000 (12%) were called active. The shares of active, inactive and inconclusive entries below differ from those in the screen. Calls follow the shape of the dose curve; as a rule, active = well fitted inhibition curve with a large enough effect; inconclusive = small, poorly fitted or top-dose-only effect; inactive = flat fitted curve, though single readings scatter. No potency is given beside an inconclusive call; the fits are too rough.

Assay: qHTS for Inhibitors of human tyrosyl-DNA phosphodiesterase 1 (TDP1): qHTS in cells in presence of CPT; also: nearly all actives have a fitted effect of over 55% in size
Conditions: chicken DT40 Tdp1-/-;hTDP1 cells + 20 nM CPT, ATP luminescence, 48 h; activity change, negative = growth inhibition: at 46.2 µM (top of the series) unless noted
Outline: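 Cell growth measured by CellTiter-Glo luminescence after a minimum 48 h, 37 C compound exposure with 20 nM CPT in Tdp1-knockout DT40 cells stably expressing hTDP1, seeded 400/well; qHTS titration format.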
% is scaled to controls: 0 for no effect and ±100 for the full control effect; potency is read from the fitted curve at half-maximal effect; tags tell the direction and shape of the fitted curve.

Compound	activity change, negative = growth inhibition	Potency
CC1(C)C(=O)N(CC(=O)Nc2ccc(OC(F)(F)F)cc2)c2ccccc21	inactive: -26.9%	–
Oc1cccc(Nc2nc(-c3ccccc3)nc3ccccc23)c1	–	inconclusive [inhibitor, single point]
CC(C)c1ccc(C(O)P(=O)(OC2CCCCC2)OC2CCCCC2)cc1 (stereo not drawn)	–	inconclusive [inhibitor, single point]
CC(C)COC(=O)Nc1nnc(Cc2ccccc2)s1	–	inconclusive [inhibitor, single point]
COc1ccc(N2CCN(C(=O)c3ccc(Br)cc3)CC2)c([N+](=O)[O-])c1	–	inconclusive [inhibitor, single point]
Cn1nc(C(=O)Nc2ccccc2)c2c1-c1ccccc1S(=O)(=O)C2	–	inconclusive [inhibitor, single point]
Cc1cccc(C)c1NC(=O)C(c1cccc2ccccc12)n1c(=O)c(-c2ccco2)nc2ccccc21 (stereo not drawn)	–	inconclusive [inhibitor, single point]
Cn1cc(C(=O)c2ccccc2)cc1-c1nc2ccccc2n1C	–	inconclusive [inhibitor, single point]
CCOc1cc(C)c(S(=O)(=O)NC2CC(C)(C)NC(C)(C)C2)cc1C	–	inconclusive [inhibitor, single point]
Cc1nc2ccc(NS(=O)(=O)c3ccccc3F)cc2s1	–	inconclusive [inhibitor, single point]
CN([C@@H](C(=O)OC(C)(C)C)c1ccccc1)S(=O)(=O)c1cccc(S(=O)(=O)N(C)[C@@H](C(=O)OC(C)(C)C)c2ccccc2)c1	–	active: 13 µM
COc1cccc(C(=O)NCC(=O)OC(C)C(=O)NC23CC4CC(CC(C4)C2)C3)c1 (stereo not drawn)	inactive: -24.4%	–
Cc1ccccc1NS(=O)(=O)c1ccc(NC(=O)N2CCCCC2)cc1	–	inconclusive [inhibitor, single point]
Cc1ccc(NC(=O)c2ccccc2N(C)S(=O)(=O)c2ccccc2)c(C)c1	–	inconclusive [inhibitor, single point]
COc1ccccc1/C=C/C(=O)NC(=S)NC(C)C	–	inconclusive [inhibitor, single point]
Cc1ccc(NC(=S)/N=C(\N)Nc2nc(C)c3cc(C)c(C)cc3n2)cc1C	–	inconclusive [inhibitor, single point]
COc1ccccc1NS(=O)(=O)c1cccc(C(=O)NCc2ccco2)c1	inactive: -15.9%	–
CC1(C)Cc2c(c(N3CCOCC3)nc3sc4c(NN)ncnc4c23)CS1	–	inconclusive [inhibitor, single point]
